Experimental findings from paper PMC12040169 (PLOS Biology, 2025) are described below.

Some of the results follow.

In this test the test system is T1, C. trachomatis L2/434/Bu expressing GFP (CTL2-GFP).
T1 construct: L2/434/Bu GFP intracellular growth in HeLa cells
On the set-up: species or system HeLa; C. trachomatis total inclusion area by high-content imaging, normalised to DMSO. The note with it: total inclusion area; 28.5 h, 10 µM; inhibitor. Put shortly:
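High-content imaging followed the bulk GFP/resorufin measurement: fixed, Hoechst-stained cells were scored for GFP inclusions and host nuclei per well. Total inclusion area and count served as growth proxies, nuclei number as the viability proxy. MIC calculation matched the bulk assay.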
For the compound `Cc1cccc(CCNC(=O)N2CCN(Cc3ccccn3)CC2)c1` [CBK304057], the “% of control remaining” value is 111.631. The result for `CCCn1cc(NC(=O)C2(c3ccccc3)CCOCC2)ccc1=O` [CBK304905] reads 8.043; that for `CCn1cc(NC(=O)CC2CCN(Cc3cccc(C(F)(F)F)c3)CC2)cn1` [CBK286118], 88.9794.

Turning to `O=C(O)C[C@]1(C(=O)NC2CCCCCC2)CC(/C=C/c2ccccc2)=NO1` [CBK286732], the “% of control remaining” value was found to be 72.8368. Next, `Cc1cccc(OCCNC(=O)CN2CCCC2Cn2cncn2)c1` (stereo not drawn) [CBK305345]: 39.4408; `COCC1CCCN1C(=O)c1cnn2c(C)c(Cc3ccccc3)c(C)nc12` (stereo not drawn) [CBK162213]: 93.5127; `CS(=O)(=O)c1sc(C(=O)NC(=S)Nc2cccc(C(F)(F)F)c2)c2c1C=CCC2` [CBK005654]: 97.5258. The result for `c1ccc(-c2nnc(C3CCNCC3)[nH]2)nc1` [CBK288629G] reads 120.272; that for `O=C(NC1CCCC1)c1ccc(-c2cnc3[nH]c(=O)n(C4CCCCC4)c3n2)cc1` [CBK064582], 87.3802; that for `CCOc1cc(/C=N/Nc2nncn2N)cc(I)c1O` [CBK027879], 97.6893. With `C[C@@H](c1ccccc1)n1c(=O)[nH]c2ncc(-c3cccc4cccnc34)nc21` [CBK064199], the “% of control remaining” value is on record as 139.254. The result for `Cc1ccccc1C(=O)NCC(=O)Nc1ccc(Br)c2ccccc12` [CBK091343] reads 78.4003. The result for `Cc1ccc(N(CC(=O)Nc2ccc(S(=O)(=O)N3CCCCC3)cc2)S(C)(=O)=O)c(C)c1` [CBK263981] reads 88.4579. For the compound `O=C(CN1CCOCC1)N1CCN(C(=O)c2ccco2)CC1` [CBK144478], the “% of control remaining” value was 90.8546. With `Nc1nc2cccnc2cc1-c1ccc2c(c1)OCCCO2` [CBK081201], the “% of control remaining” value is reported as 92.1518. Next, `O=C(COc1ccc([N+](=O)[O-])cc1)N/N=C/c1cc(Br)cc(Br)c1O` [CBK262094]: 78.8236; `Cc1ccc2c(c1)nc(CNC(=O)NCc1ccnc(C)n1)n2C` [CBK304292]: 71.1679.

Consider `Cc1ccccc1-n1ncc2c1NC(=O)N1CCCN=C21` [CBK284409], for which the “% of control remaining” value is on record as 70.5842. The result for `CC(C)(C)c1cn(C[C@H]2CC3CCN2C[C@@H]3C(=O)NC2CCCCC2)nn1` (stereo partly drawn) [CBK289085] reads 107.927. The result for `CC1CCc2c(sc(NC(=O)c3cc(-c4ccccn4)nc4c(Cl)cccc34)c2C(N)=O)C1` (stereo not drawn) [CBK267744] reads 133.794; that for `COCCn1c(CO)nnc1[C@H]1C[C@@H](NC(=O)c2ccc(F)cc2C)C1` [CBK306856], 99.5664; that for `CCCC(=O)c1ccc(S(=O)(=O)N2CCN(Cc3ccc(F)c(C(F)(F)F)c3)CC2)cc1` [CBK063162], 100.723. Next, `CCCN(C)Cc1ccc(-c2cn(CC(=O)NCc3ccc(C(F)(F)F)cc3)nn2)cc1` [CBK164719]: 85.9935; `CC(C)(C)S(=O)(=O)c1ccc2nc3c(n2c1)CCCC3` [CBK006753]: 57.4271. Consider `O=C(COc1ccc(S(=O)(=O)N2CCOCC2)cc1)N1CCc2ccccc2C1` [CBK268350], for which the “% of control remaining” value came out at 99.2996. For the compound `Nc1ncc(-c2ccc(O)cc2)nc1N1CCC[C@@H]1CO` [CBK063669], the “% of control remaining” value is given as 117.787.

In the case of `NC(=O)CCn1c(=S)n(CCC(N)=O)c2ccccc21` [CBK262301], the “% of control remaining” value is recorded as 102.062.

On to `O=C1NCC2(C/C=C/CCOc3ccccc31)CCN(C(=O)CCN1CCCC1)CC2` [CBK292020], for which the “% of control remaining” value stood at 58.8108. The result for `Cc1[nH]nc(-c2ccc(OCc3cnn(-c4ccccc4)c3)cc2O)c1Oc1ccc(Cl)cc1` [CBK264939] reads 105.04; that for `COC(=O)c1ccc2c(=O)n(CC(C)O)c(SC)nc2c1` (stereo not drawn) [CBK305018], 59.4682. Next, `Cc1cc2c(cc3c(=O)n(CC(=O)N4CCCCC4)nc(C)n32)o1` [CBK283630]: 104.985; `O=C(NCc1ccc(Cl)c(Cl)c1)c1cnoc1-c1ccccc1Cl` [CBK154942]: 87.6089; `N#CCc1ccc(Nc2cc(-c3cccc(N)c3)ncn2)cc1` [CBK091187]: 105.305. Next, `O=C(O)c1ccccc1-n1c(=O)c2cc3c(=O)n(-c4ccccc4C(=O)O)c(=O)c3cc2c1=O` [CBK261097]: 108.503; `CC(=O)N1CCc2sccc2C1c1ccc(NC(=O)c2ccccc2F)cc1` (stereo not drawn) [CBK286433]: 81.9344; `COc1cccc(NC(=O)N2CCN3C(=O)[C@H](Cc4ccc(O)cc4)NC(=O)[C@@H]3C2)c1` [CBK289618]: 110.065. Consider `Cc1noc(C2=CC=CN3C2=NNC32CCNCC2)n1` [CBK288058], for which the “% of control remaining” value turned out to be 108.926.

In the case of `O=C(CCSc1ccccc1)Nc1ccc(Br)cc1F` [CBK266825], the “% of control remaining” value turned out to be 100.824.

Regarding `Cn1cnc([N+](=O)[O-])c1Oc1cccc(C(F)(F)F)c1` [CBK002790], the “% of control remaining” value is 47.4526.

With `O=C(O)c1cccc2c1C(=O)N(Cc1ccc(F)cc1)C2` [CBK291183], the “% of control remaining” value was determined as 117.985. The result for `O=C1N[C@@]2(CC3CCC2CC3C(=O)NC2CC2)Nc2ccccc21` (stereo partly drawn) [CBK284454] reads 98.5606; that for `O=C(c1ccncc1)N1CCCC1(CO)Cc1ccccc1` (stereo not drawn) [CBK288620], 69.5753. With `COc1ccc(N2C(N)=C(C#N)C(c3cccc(OC(C)C)c3)C3=C2CCS3(=O)=O)cc1` (stereo not drawn) [CBK293992], the “% of control remaining” value was 120.643. For `CC(Cc1nc(-c2ccnn2C)cs1)n1cc(Cl)cn1` (stereo not drawn) [CBK304152], the “% of control remaining” value is on record as 29.4505. Next, `CC(=O)c1ccc(CN2CCCN(S(=O)(=O)c3ccc(C(F)(F)F)cc3Cl)CC2)cc1` [CBK063106]: 65.072; `O=C(O)CS(=O)(=O)c1ccc(Cl)cc1` [CBK262036G]: 102.821; `c1ccc(OCCNc2nccnc2N2CCNCC2)cc1` [CBK013527]: 80.419. Next, `Cc1cc(C2CCCCCN2C(=O)c2c(C)noc2C)no1` (stereo not drawn) [CBK284845]: 99.6756; `CN(C)CC(C)(C)CNC(=O)c1cnc2cc(C(F)(F)F)ccc2c1O` [CBK107427]: 66.5799. Next, `O=C(O)c1ccc2[nH]c(=O)[nH]c2c1` [CBK032631]: 51.7227; `Cn1nc(C2CCN(Cc3ccccc3)CC2)c2cccnc21` [CBK285095]: 97.3226. Turning to `OC1CCn2c1nc1cc(Cl)ccc12` (stereo not drawn) [CBK113623], the “% of control remaining” value came to 83.672. Next, `COc1cccc(C(=O)Nc2nc(-c3ccc(C(C)C)cc3)cs2)c1` [CBK101110]: 93.9931; `Cc1ccc2nc(CN3CCC(CNc4ccccn4)C3)cc(=O)n2c1` (stereo not drawn) [CBK306340]: 24.6775. The result for `COC(=O)c1ccc(CNc2nc(OC)cc(OC)n2)cc1` [CBK093391] reads 92.5318; that for `CC1CCN(C(=O)[C@@H]2CN(C)C[C@]23CCc2ccccc2C3=O)CC1` [CBK284589], 106.744. Next, `O=c1[nH]c2ccc(S(=O)(=O)Nc3ccc(-c4ccccc4)cc3)cc2[nH]1` [CBK266999]: 91.8043. With `O=C(Nc1cccc2ccccc12)N1CCN(Cc2ccc3c(c2)OCO3)CC1` [CBK074747], the “% of control remaining” value is given as 66.611. The result for `CSCC(=O)N[C@H]1CCN2C(=O)N(c3cccc(C(C)=O)c3)C(=O)[C@@H]2C1` [CBK289546] reads 91.272. The result for `O=C(CSCc1ccc(Br)cc1)Nc1cccnc1` [CBK268543] reads 93.7072; that for `CN(C)CC1CCCCN1C(=O)C1CC2C=CC1C21CC1` (stereo not drawn) [CBK282085], 109.721; that for `COc1ccccc1-c1cnn2c(NCC3CCCO3)cc(C)nc12` (stereo not drawn) [CBK304529], 114.756. Next, `Cc1cc(C)n(CC(O)CN(Cc2ccccc2)Cc2ccco2)n1` (stereo not drawn) [CBK282957]: 95.0579; `CC(C)(C)c1cc(CCC(c2cc(C(C)(C)C)c(O)c(C(C)(C)C)c2)c2cc(C(C)(C)C)c(O)c(C(C)(C)C)c2)cc(C(C)(C)C)c1O` [CBK261271]: 86.6999.

As to `CC(=O)c1ccc(S(=O)(=O)Nc2ccc(C)cc2)cc1` [CBK045380], the “% of control remaining” value is reported as 97.155. For the compound `O=C(c1cccnc1)C1CCN(C(=O)c2cccs2)CC1` [CBK283528], the “% of control remaining” value was determined as 62.8614. The result for `Cc1noc2nc(-c3ccco3)cc(C(=O)N(C)CCOc3ccccc3)c12` [CBK295623] reads 75.602. For `CC(=O)Nc1cccc(-c2cnc(N)c(NC3CCOCC3)n2)c1` [CBK063845], the “% of control remaining” value was 88.3089. Regarding `O=C(O)CCC(=O)Nc1cccc2ccccc12` [CBK260889], the “% of control remaining” value is 94.2141.

As for `CC(C)(C)OC(=O)N1CCCC(C(=O)NCc2ccco2)C1` (stereo not drawn) [CBK305102], the “% of control remaining” value is 36.513.

Regarding `O=C(CSc1nnc2sc3ccccc3n12)N1c2ccccc2Sc2ccccc21` [CBK265457], the “% of control remaining” value is 61.3792. Next, `O=C(O)c1ccc(NS(=O)(=O)c2cc(Br)c(Cl)s2)cc1` [CBK034049]: 85.6884; `Cn1c(SCc2ccc([N+](=O)[O-])cc2)nnc1C(O)c1ccccc1` (stereo not drawn) [CBK269735]: 80.6966. As to `COc1cccc([C@H]2CN(C(=O)c3ccccc3)[C@@H]3CCN(Cc4ccccc4C)C[C@H]23)c1` [CBK285610], the “% of control remaining” value is listed as 90.6344.

`CC(C)c1ccc(NS(=O)(=O)c2cc3c(N4CCNCC4)nccc3s2)cc1` [CBK038104C]: the “% of control remaining” value was determined as 68.8491. The result for `CCOC(=O)c1cn(CC)c2cc(N3CCCC3)c(F)cc2c1=O` [CBK307169] reads 114.589; that for `Cn1cc(CN2CCC(C(=O)NC(c3ccc4c(c3)OCO4)c3ccccn3)CC2)c2ccccc21` (stereo not drawn) [CBK148183], 107.699; that for `O=C1NC2(CCN(C(=O)CC3c4ccccc4Oc4ccccc43)CC2)Nc2ccccc21` [CBK286307], 92.7183.
